Measurements as given in the supplement of paper PMC6206098.
± gives the uncertainty stated by the source. The sequences are guide strands of siRNAs; only the seed at positions 2 to 7 varies.

How the values were obtained:
[1] = system: 3LL; experiment: cell viability relative to siNT1 control; higher = less toxic; settings: concentration: 10 nM; 96 h; Mus musculus;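 also: Luminescence-based viability of cells reverse transfected in 384-well plates with lipid-complexed siRNAs built on a non-toxic 19mer backbone whose passenger strand carries 2′-O-methyl groups at positions 1 and 2, triplicates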
[2] = system: H460; experiment: cell viability relative to lipid-only control; HeyA8 human ovarian and H460 human lung cancer; M565 mouse liver and 3LL mouse lung cancer; siNT1 is a non-toxic control siRNA; higher = less toxic; settings: concentration: 10 nM; 96 h; Homo sapiens
[3] = system: HeyA8; experiment: as above; settings: concentration: 10 nM; 96 h; Homo sapiens
[4] = system: M565; experiment: as above; settings: concentration: 10 nM; 96 h; Mus musculus
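For cell viability relative to lipid-only control in this document: reverse lipid transfection in 384-well plates, in triplicate, of duplexes on a non-toxic 19mer backbone with passenger strand 2′-O-methylated at positions 1 and 2, luminescence viability read-out.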

UUAGUCGACAUGUAAACCAAA
cell viability [1]: 94.8 ± 13%
cell viability [2]: 82.1 ± 8.7%
cell viability [3]: 100 ± 4.9%
cell viability [4]: 84.3 ± 14%

UAUCGUGACAUGUAAACCAAA
cell viability [1]: 114 ± 17%
cell viability [2]: 91.2 ± 11%
cell viability [3]: 88.7 ± 6.2%
cell viability [4]: 73.1 ± 18%

UCUGAAGACAUGUAAACCAAA
cell viability [1]: 97.5 ± 15%
cell viability [2]: 68.6 ± 14%
cell viability [3]: 92.2 ± 7%
cell viability [4]: 80.6 ± 16%

UCUGCAGACAUGUAAACCAAA
cell viability [1]: 104 ± 16%
cell viability [2]: 70.9 ± 2.4%
cell viability [3]: 82.5 ± 5%
cell viability [4]: 89.2 ± 8%

UAACAUCACAUGUAAACCAAA
cell viability [1]: 32.1 ± 9.7%
cell viability [2]: 35.8 ± 7%
cell viability [3]: 5.87 ± 0.41%
cell viability [4]: 64.2 ± 9.1%

UACGACCACAUGUAAACCAAA
cell viability [1]: 65 ± 13%
cell viability [2]: 47.6 ± 5.3%
cell viability [3]: 8.64 ± 0.94%
cell viability [4]: 31.7 ± 3.4%

UAAUUUUACAUGUAAACCAAA
cell viability [1]: 107 ± 8.2%
cell viability [2]: 92.3 ± 5.1%
cell viability [3]: 86.11 ± 0.83%
cell viability [4]: 126 ± 14%

UUACGCUACAUGUAAACCAAA
cell viability [1]: 41.6 ± 6.7%
cell viability [2]: 74.7 ± 7%
cell viability [3]: 97.1 ± 3%
cell viability [4]: 85.4 ± 20%

UCGCAUUACAUGUAAACCAAA
cell viability [1]: 95.1 ± 25%
cell viability [2]: 69.4 ± 9.7%
cell viability [3]: 76.3 ± 0.19%
cell viability [4]: 62.2 ± 6.7%

UUAGCCCACAUGUAAACCAAA
cell viability [1]: 4.74 ± 1.6%
cell viability [2]: 24.6 ± 2.7%
cell viability [3]: 48.4 ± 1.1%
cell viability [4]: 17.6 ± 4.5%

UAAACAGACAUGUAAACCAAA
cell viability [1]: 116 ± 8.4%
cell viability [2]: 71.9 ± 8.3%
cell viability [3]: 96.7 ± 9.2%
cell viability [4]: 95.9 ± 38%

UUCUUUUACAUGUAAACCAAA
cell viability [1]: 104 ± 10%
cell viability [2]: 69.5 ± 4.5%
cell viability [3]: 92.4 ± 7.5%
cell viability [4]: 115 ± 3.5%

UUACGCCACAUGUAAACCAAA
cell viability [1]: 46.8 ± 7.1%
cell viability [2]: 70.9 ± 13%
cell viability [3]: 72.4 ± 1.6%
cell viability [4]: 29.3 ± 8.7%

UAUAAUGACAUGUAAACCAAA
cell viability [1]: 116 ± 23%
cell viability [2]: 93.7 ± 28%
cell viability [3]: 101 ± 14%
cell viability [4]: 90.1 ± 14%

UCGAGGAACAUGUAAACCAAA
cell viability [1]: 92.8 ± 20%
cell viability [2]: 70.4 ± 14%
cell viability [3]: 82 ± 5.2%
cell viability [4]: 62.8 ± 6.3%

UGUCGAAACAUGUAAACCAAA
cell viability [1]: 94.1 ± 25%
cell viability [2]: 63.3 ± 3.9%
cell viability [3]: 98.3 ± 8.2%
cell viability [4]: 49.7 ± 9.9%

UCCGAUAACAUGUAAACCAAA
cell viability [1]: 102 ± 4.6%
cell viability [2]: 67.8 ± 19%
cell viability [3]: 86.8 ± 5.6%
cell viability [4]: 64.6 ± 13%

UGAUCCCACAUGUAAACCAAA
cell viability [1]: 38.6 ± 5.5%
cell viability [2]: 67.4 ± 5.4%
cell viability [3]: 60.6 ± 4.4%
cell viability [4]: 7.32 ± 0.77%

UACCUAUACAUGUAAACCAAA
cell viability [1]: 77.4 ± 9.2%
cell viability [2]: 68.9 ± 9.7%
cell viability [3]: 58.8 ± 2.2%
cell viability [4]: 84.8 ± 17%

UAGUGUAACAUGUAAACCAAA
cell viability [1]: 83.87 ± 0.74%
cell viability [2]: 62.5 ± 11%
cell viability [3]: 63.6 ± 6.2%
cell viability [4]: 33.7 ± 4.6%

UGAAGGGACAUGUAAACCAAA
cell viability [1]: 23.1 ± 5.8%
cell viability [2]: 49.7 ± 6.1%
cell viability [3]: 53.6 ± 10%
cell viability [4]: 48.1 ± 1.8%

UAGGGUAACAUGUAAACCAAA
cell viability [1]: 90.9 ± 9.3%
cell viability [2]: 80.9 ± 2.1%
cell viability [3]: 50.6 ± 5.2%
cell viability [4]: 54.5 ± 12%

UGUGGACACAUGUAAACCAAA
cell viability [1]: 58 ± 4.4%
cell viability [2]: 36.3 ± 3.8%
cell viability [3]: 34.5 ± 2.5%
cell viability [4]: 7.49 ± 2.5%

UCGGGAAACAUGUAAACCAAA
cell viability [1]: 92.6 ± 15%
cell viability [2]: 64 ± 11%
cell viability [3]: 85.2 ± 5.9%
cell viability [4]: 72.4 ± 1.5%

UCUGACGACAUGUAAACCAAA
cell viability [1]: 97 ± 15%
cell viability [2]: 39.6 ± 6%
cell viability [3]: 88.3 ± 2.4%
cell viability [4]: 66.5 ± 12%

UAGUUAUACAUGUAAACCAAA
cell viability [1]: 89.9 ± 7.5%
cell viability [2]: 52.3 ± 12%
cell viability [3]: 22.8 ± 2.4%
cell viability [4]: 43.2 ± 1.1%

UUUUUGGACAUGUAAACCAAA
cell viability [1]: 49.7 ± 3%
cell viability [2]: 56.7 ± 10%
cell viability [3]: 98.8 ± 6.5%
cell viability [4]: 34.5 ± 7.2%

UUUCGGGACAUGUAAACCAAA
cell viability [1]: 89.4 ± 4.7%
cell viability [2]: 65.5 ± 6.2%
cell viability [3]: 91 ± 2.2%
cell viability [4]: 61.8 ± 6%

UCCGGUAACAUGUAAACCAAA
cell viability [1]: 103 ± 32%
cell viability [2]: 67.1 ± 12%
cell viability [3]: 79 ± 2.4%
cell viability [4]: 69.1 ± 16%

UUGCGCGACAUGUAAACCAAA
cell viability [1]: 96.7 ± 6.8%
cell viability [2]: 72.8 ± 5.8%
cell viability [3]: 96.4 ± 2.9%
cell viability [4]: 56.2 ± 7.9%

UUAACCUACAUGUAAACCAAA
cell viability [1]: 76.7 ± 7%
cell viability [2]: 79.6 ± 3.9%
cell viability [3]: 70.4 ± 1.9%
cell viability [4]: 85.6 ± 16%

UUUUCACACAUGUAAACCAAA
cell viability [1]: 98.9 ± 10%
cell viability [2]: 71.3 ± 14%
cell viability [3]: 67.1 ± 6.6%
cell viability [4]: 114 ± 7%

UAUCGAAACAUGUAAACCAAA
cell viability [1]: 116 ± 12%
cell viability [2]: 81.8 ± 19%
cell viability [3]: 97.9 ± 6.5%
cell viability [4]: 103 ± 21%

UAAGCCAACAUGUAAACCAAA
cell viability [1]: 95.1 ± 2.7%
cell viability [2]: 85.2 ± 22%
cell viability [3]: 85 ± 15%
cell viability [4]: 62.2 ± 5.8%

UUCCGGCACAUGUAAACCAAA
cell viability [1]: 39.1 ± 12%
cell viability [2]: 37.4 ± 0.78%
cell viability [3]: 49.6 ± 9%
cell viability [4]: 43.9 ± 9.9%

UACGAUAACAUGUAAACCAAA
cell viability [1]: 95.8 ± 19%
cell viability [2]: 83.7 ± 13%
cell viability [3]: 91.7 ± 8.5%
cell viability [4]: 67.5 ± 5.3%

UUGAGGAACAUGUAAACCAAA
cell viability [1]: 74.3 ± 5.1%
cell viability [2]: 60.5 ± 12%
cell viability [3]: 65.9 ± 1.8%
cell viability [4]: 14.5 ± 4.2%

UUUCCUAACAUGUAAACCAAA
cell viability [1]: 89.01 ± 0.74%
cell viability [2]: 68.2 ± 4.2%
cell viability [3]: 101 ± 2.1%
cell viability [4]: 93 ± 9.6%

UGCAAAAACAUGUAAACCAAA
cell viability [1]: 88.3 ± 9.4%
cell viability [2]: 67 ± 4.3%
cell viability [3]: 92.7 ± 15%
cell viability [4]: 87.9 ± 11%

UGAGAAGACAUGUAAACCAAA
cell viability [1]: 88 ± 14%
cell viability [2]: 70.9 ± 7.7%
cell viability [3]: 89.6 ± 4.5%
cell viability [4]: 59.8 ± 15%

UCAUAAUACAUGUAAACCAAA
cell viability [1]: 94.4 ± 15%
cell viability [2]: 41.9 ± 5.5%
cell viability [3]: 73.1 ± 5.5%
cell viability [4]: 78.9 ± 14%

UGAAAUCACAUGUAAACCAAA
cell viability [1]: 47.2 ± 9.2%
cell viability [2]: 59.4 ± 2.9%
cell viability [3]: 32.5 ± 2.5%
cell viability [4]: 46.9 ± 3%

UAUAUUAACAUGUAAACCAAA
cell viability [1]: 103 ± 22%
cell viability [2]: 85.3 ± 19%
cell viability [3]: 97.2 ± 6.8%
cell viability [4]: 101 ± 20%

UGGGAAAACAUGUAAACCAAA
cell viability [1]: 99.3 ± 7.5%
cell viability [2]: 72 ± 16%
cell viability [3]: 60.6 ± 5.1%
cell viability [4]: 64.1 ± 2.6%

UCACAAGACAUGUAAACCAAA
cell viability [1]: 98.3 ± 14%
cell viability [2]: 35.8 ± 5.3%
cell viability [3]: 86.3 ± 11%
cell viability [4]: 60.9 ± 8.2%

UGACAAGACAUGUAAACCAAA
cell viability [1]: 77.2 ± 24%
cell viability [2]: 47.7 ± 9.3%
cell viability [3]: 94.5 ± 3.1%
cell viability [4]: 54.9 ± 12%

UUCACCGACAUGUAAACCAAA
cell viability [1]: 101 ± 19%
cell viability [2]: 57.6 ± 8.5%
cell viability [3]: 85.2 ± 6%
cell viability [4]: 91.4 ± 13%

UGCUUGCACAUGUAAACCAAA
cell viability [1]: 23.4 ± 5.9%
cell viability [2]: 44.9 ± 3.4%
cell viability [3]: 25.6 ± 1.1%
cell viability [4]: 35.3 ± 17%

UAUGUGGACAUGUAAACCAAA
cell viability [1]: 89.9 ± 15%
cell viability [2]: 60.6 ± 11%
cell viability [3]: 49.4 ± 2.6%
cell viability [4]: 91.9 ± 12%

UGCACGUACAUGUAAACCAAA
cell viability [1]: 88.6 ± 5.9%
cell viability [2]: 54.6 ± 3.5%
cell viability [3]: 64.1 ± 8.7%
cell viability [4]: 40.6 ± 7.9%

UUAUUGUACAUGUAAACCAAA
cell viability [1]: 50.6 ± 4.7%
cell viability [2]: 73.6 ± 6.1%
cell viability [3]: 69.2 ± 6.1%
cell viability [4]: 58.7 ± 7.2%

UCUCCUGACAUGUAAACCAAA
cell viability [1]: 90.9 ± 10%
cell viability [2]: 54.9 ± 3.3%
cell viability [3]: 80.2 ± 5.6%
cell viability [4]: 70.8 ± 13%

UUUUCAUACAUGUAAACCAAA
cell viability [1]: 103 ± 6%
cell viability [2]: 82.3 ± 21%
cell viability [3]: 71.7 ± 7.7%
cell viability [4]: 96.7 ± 17%

UAGUAGCACAUGUAAACCAAA
cell viability [1]: 6.21 ± 1.7%
cell viability [2]: 7.07 ± 0.86%
cell viability [3]: 10.9 ± 0.34%
cell viability [4]: 20.1 ± 3.5%

UCCUACGACAUGUAAACCAAA
cell viability [1]: 91 ± 15%
cell viability [2]: 64.3 ± 2.8%
cell viability [3]: 90.4 ± 3.9%
cell viability [4]: 78.7 ± 5.5%

UACUAGUACAUGUAAACCAAA
cell viability [1]: 73.4 ± 9.5%
cell viability [2]: 24.7 ± 0.25%
cell viability [3]: 16.8 ± 0.71%
cell viability [4]: 51.6 ± 4.8%

UACCGCUACAUGUAAACCAAA
cell viability [1]: 74.1 ± 6.1%
cell viability [2]: 77.8 ± 23%
cell viability [3]: 76.1 ± 8.2%
cell viability [4]: 33.5 ± 6.8%

UUUGUCGACAUGUAAACCAAA
cell viability [1]: 103 ± 11%
cell viability [2]: 69.3 ± 6.8%
cell viability [3]: 104 ± 4.7%
cell viability [4]: 65.4 ± 13%

UUGUAUUACAUGUAAACCAAA
cell viability [1]: 72.7 ± 4%
cell viability [2]: 69.8 ± 10%
cell viability [3]: 68.5 ± 3%
cell viability [4]: 74.1 ± 21%

UGUCUAAACAUGUAAACCAAA
cell viability [1]: 93 ± 26%
cell viability [2]: 60.1 ± 5.1%
cell viability [3]: 80 ± 7.6%
cell viability [4]: 69.8 ± 5.6%
